Measured values published in a collection of fitness landscapes (doi:10.1126/science.1257360).
The other results are listed elsewhere or left out.

B1: PhoQ; a variant is named by its letters at X, in order, P23837 (parent)
chain: MKKLLRLFFPLSLRVRFLLATAAVVLVLSLAYGMVALIGYSVSFDKTTFRLLRGESNLFYTLAKWENNKLHVELPENIDKQSPTMTLIYDENGQLLWAQRDVPWLMKMIQPDWLKSNGFHEIEADVNDTSLLLSGDHSIQQQLQEVREDDDDAEMTHSVAVNVYPATSRMPKLTIVVVDTIPVELKSSYMVWSWFIYVLSANLLLVIPLLWVAAWWSLRPIEALAKEVRELEEHNRELLNPATTRELTSLVRNLNRLLKSERERYDKYRTTLTDLTHSLKTPLXXLQXXLRSLRSEKMSVSDAEPVMLEQISRISQQIGYYLHRASMRGGTLLSRELHPVAPLLDNLTSALNKVYQRKGVNISLDISPEISFVGEQNDFVEVMGNVLDNACKYCLEFVEISARQTDEHLYIVVEDDGPGIPLSKREVIFDRGQRVDTLRPGQGVGLAVAREITEQYEGKIVAGESMLGGARMEVIFGRQHSAPKDE

Variants of: B1
Assay: enrichment ratio after two sorts for PhoP signalling (ratio (wild type AVST 3.29)); higher = more functional
Settings: with PhoP (E. coli)

Q: How did the enrichment ratio turn out when PGIY was run?
A: ≤ 0.25

Q: With ARWP as the variant, how does the enrichment ratio read?
A: ≤ 0.25

Q: With RAIP as the variant, how does the enrichment ratio read?
A: ≤ 0.25

Q: With SPTM as the variant, how does the enrichment ratio read?
A: ≤ 0.25

Q: With WYMQ as the variant, how does the enrichment ratio read?
A: ≤ 0.25

Q: GINK was tested. Which enrichment ratio did it give?
A: ≤ 0.25

Q: With MMMY as the variant, how does the enrichment ratio read?
A: ≤ 0.25

Q: How did the enrichment ratio turn out when KCCS was run?
A: ≤ 0.25

Q: With VMLE as the variant, how does the enrichment ratio read?
A: ≤ 0.25

Q: For SSQR, which enrichment ratio is on record?
A: ≤ 0.25

Q: With GSDE as the variant, how does the enrichment ratio read?
A: ≤ 0.25

Q: GITG was tested. Which enrichment ratio did it give?
A: 2.48

Q: For PENW, which enrichment ratio is on record?
A: ≤ 0.25

Q: How did the enrichment ratio turn out when WNFE was run?
A: ≤ 0.25

Q: How did the enrichment ratio turn out when DWHD was run?
A: ≤ 0.25

Q: Which enrichment ratio does the source give for KAKA here?
A: ≤ 0.25

Q: For HFST, which enrichment ratio is on record?
A: ≤ 0.25

Q: How did the enrichment ratio turn out when GMNW was run?
A: ≤ 0.25

Q: How did the enrichment ratio turn out when LKDH was run?
A: ≤ 0.25

Q: DFYS was tested. Which enrichment ratio did it give?
A: ≤ 0.25

Q: HILT was tested. Which enrichment ratio did it give?
A: ≤ 0.25

Q: With HHMW as the variant, how does the enrichment ratio read?
A: ≤ 0.25

Q: For WRHN, which enrichment ratio is on record?
A: ≤ 0.25

Q: With NTMG as the variant, how does the enrichment ratio read?
A: ≤ 0.25

Q: Which enrichment ratio does the source give for PWLM here?
A: ≤ 0.25

Q: How did the enrichment ratio turn out when VTYA was run?
A: ≤ 0.25

Q: Which enrichment ratio does the source give for IERV here?
A: ≤ 0.25

Q: How did the enrichment ratio turn out when FLNV was run?
A: ≤ 0.25

Q: How did the enrichment ratio turn out when QVLV was run?
A: ≤ 0.25

Q: With ASTA as the variant, how does the enrichment ratio read?
A: 9.73

Q: Which enrichment ratio does the source give for NETQ here?
A: ≤ 0.25

Q: With DIWP as the variant, how does the enrichment ratio read?
A: ≤ 0.25

Q: How did the enrichment ratio turn out when ITAP was run?
A: ≤ 0.25

Q: LNAM was tested. Which enrichment ratio did it give?
A: ≤ 0.25

Q: Which enrichment ratio does the source give for QLIY here?
A: ≤ 0.25

Q: PKAP was tested. Which enrichment ratio did it give?
A: ≤ 0.25

Q: For GDQI, which enrichment ratio is on record?
A: ≤ 0.25

Q: Which enrichment ratio does the source give for NFIT here?
A: ≤ 0.25

Q: IETN was tested. Which enrichment ratio did it give?
A: ≤ 0.25

Q: For SFWH, which enrichment ratio is on record?
A: ≤ 0.25

Q: How did the enrichment ratio turn out when TWYS was run?
A: ≤ 0.25

Q: TRPE was tested. Which enrichment ratio did it give?
A: ≤ 0.25

Q: How did the enrichment ratio turn out when GMMK was run?
A: ≤ 0.25

Q: LWCN was tested. Which enrichment ratio did it give?
A: ≤ 0.25

Q: How did the enrichment ratio turn out when FTAL was run?
A: 0.293

Q: How did the enrichment ratio turn out when NMPG was run?
A: ≤ 0.25

Q: How did the enrichment ratio turn out when RDEL was run?
A: ≤ 0.25

Q: Which enrichment ratio does the source give for RTTC here?
A: ≤ 0.25

Q: YIGF was tested. Which enrichment ratio did it give?
A: 0.333

Q: With KGRM as the variant, how does the enrichment ratio read?
A: ≤ 0.25

Q: With WRYS as the variant, how does the enrichment ratio read?
A: ≤ 0.25

Q: How did the enrichment ratio turn out when LPTW was run?
A: ≤ 0.25

Q: For MKHG, which enrichment ratio is on record?
A: ≤ 0.25

Q: How did the enrichment ratio turn out when GILQ was run?
A: 17.5

Q: With VWHL as the variant, how does the enrichment ratio read?
A: ≤ 0.25

Q: For TWGP, which enrichment ratio is on record?
A: ≤ 0.25

Q: With WQEW as the variant, how does the enrichment ratio read?
A: ≤ 0.25

Q: With YRDF as the variant, how does the enrichment ratio read?
A: ≤ 0.25

Q: Which enrichment ratio does the source give for YMVT here?
A: ≤ 0.25

Q: With EEQY as the variant, how does the enrichment ratio read?
A: ≤ 0.25

Q: SIAM was tested. Which enrichment ratio did it give?
A: 20.8

Q: With DMSW as the variant, how does the enrichment ratio read?
A: ≤ 0.25

Q: With YRAY as the variant, how does the enrichment ratio read?
A: ≤ 0.25

Q: Which enrichment ratio does the source give for DVRV here?
A: ≤ 0.25

Q: For PARD, which enrichment ratio is on record?
A: ≤ 0.25

Q: How did the enrichment ratio turn out when DGCI was run?
A: ≤ 0.25

Q: With NHYM as the variant, how does the enrichment ratio read?
A: ≤ 0.25

Q: For AYWF, which enrichment ratio is on record?
A: ≤ 0.25

Q: Which enrichment ratio does the source give for RPID here?
A: ≤ 0.25

Q: YKDK was tested. Which enrichment ratio did it give?
A: ≤ 0.25

Q: Which enrichment ratio does the source give for KYEV here?
A: ≤ 0.25

Q: For KCVD, which enrichment ratio is on record?
A: ≤ 0.25

Q: YVKR was tested. Which enrichment ratio did it give?
A: ≤ 0.25

Q: GVQP was tested. Which enrichment ratio did it give?
A: ≤ 0.25

Q: LILQ was tested. Which enrichment ratio did it give?
A: ≤ 0.25

Q: Which enrichment ratio does the source give for YNSA here?
A: ≤ 0.25

Q: With LWAY as the variant, how does the enrichment ratio read?
A: 0.574

Q: With HPIM as the variant, how does the enrichment ratio read?
A: ≤ 0.25

Q: LLCI was tested. Which enrichment ratio did it give?
A: ≤ 0.25

Q: With NISQ as the variant, how does the enrichment ratio read?
A: ≤ 0.25

Q: Which enrichment ratio does the source give for RPFA here?
A: ≤ 0.25

Q: How did the enrichment ratio turn out when NAHS was run?
A: ≤ 0.25

Q: For YSIF, which enrichment ratio is on record?
A: ≤ 0.25

Q: With MCIW as the variant, how does the enrichment ratio read?
A: ≤ 0.25

Q: With GFRF as the variant, how does the enrichment ratio read?
A: ≤ 0.25

Q: For PDNF, which enrichment ratio is on record?
A: ≤ 0.25

Q: Which enrichment ratio does the source give for RIVI here?
A: ≤ 0.25

Q: How did the enrichment ratio turn out when PKTY was run?
A: ≤ 0.25

Q: For HIKK, which enrichment ratio is on record?
A: ≤ 0.25

Q: With TWCN as the variant, how does the enrichment ratio read?
A: ≤ 0.25

Q: For KFKN, which enrichment ratio is on record?
A: ≤ 0.25

Q: For NTIR, which enrichment ratio is on record?
A: ≤ 0.25

Q: With IELL as the variant, how does the enrichment ratio read?
A: ≤ 0.25

Q: DRVI was tested. Which enrichment ratio did it give?
A: ≤ 0.25

Q: QGPH was tested. Which enrichment ratio did it give?
A: ≤ 0.25

Q: For HLHE, which enrichment ratio is on record?
A: ≤ 0.25

Q: Which enrichment ratio does the source give for YILD here?
A: ≤ 0.25

Q: VQGT was tested. Which enrichment ratio did it give?
A: ≤ 0.25

Q: SMVL was tested. Which enrichment ratio did it give?
A: 3.56

Q: Which enrichment ratio does the source give for LEDK here?
A: ≤ 0.25

Q: Which enrichment ratio does the source give for QMTN here?
A: ≤ 0.25

Q: LWHH was tested. Which enrichment ratio did it give?
A: ≤ 0.25

Q: For DFGN, which enrichment ratio is on record?
A: ≤ 0.25

Q: For YPIC, which enrichment ratio is on record?
A: ≤ 0.25

Q: QSWA was tested. Which enrichment ratio did it give?
A: 14.9

Q: With EFAK as the variant, how does the enrichment ratio read?
A: ≤ 0.25

Q: How did the enrichment ratio turn out when GEVK was run?
A: ≤ 0.25

Q: With DEGT as the variant, how does the enrichment ratio read?
A: ≤ 0.25

Q: With KMSL as the variant, how does the enrichment ratio read?
A: ≤ 0.25

Q: Which enrichment ratio does the source give for QCCI here?
A: ≤ 0.25

Q: NPMQ was tested. Which enrichment ratio did it give?
A: ≤ 0.25

Q: AAYS was tested. Which enrichment ratio did it give?
A: ≤ 0.25

Q: For DLRN, which enrichment ratio is on record?
A: ≤ 0.25

Q: How did the enrichment ratio turn out when QWHS was run?
A: ≤ 0.25

Q: Which enrichment ratio does the source give for FKNQ here?
A: ≤ 0.25

Q: For DMHA, which enrichment ratio is on record?
A: ≤ 0.25

Q: For LKVL, which enrichment ratio is on record?
A: ≤ 0.25

Q: For PITD, which enrichment ratio is on record?
A: ≤ 0.25

Q: With PTSI as the variant, how does the enrichment ratio read?
A: ≤ 0.25

Q: For SPMR, which enrichment ratio is on record?
A: ≤ 0.25

Q: Which enrichment ratio does the source give for NDWF here?
A: ≤ 0.25

Q: With KDNR as the variant, how does the enrichment ratio read?
A: ≤ 0.25

Q: Which enrichment ratio does the source give for EQMD here?
A: ≤ 0.25

Q: For ELRV, which enrichment ratio is on record?
A: ≤ 0.25

Q: Which enrichment ratio does the source give for HWYS here?
A: ≤ 0.25

Q: VYGE was tested. Which enrichment ratio did it give?
A: ≤ 0.25

Q: How did the enrichment ratio turn out when EPML was run?
A: ≤ 0.25

Q: How did the enrichment ratio turn out when WSES was run?
A: ≤ 0.25

Q: GWDV was tested. Which enrichment ratio did it give?
A: ≤ 0.25

Q: With AWAV as the variant, how does the enrichment ratio read?
A: ≤ 0.25

Q: APLQ was tested. Which enrichment ratio did it give?
A: ≤ 0.25

Q: How did the enrichment ratio turn out when RHQV was run?
A: ≤ 0.25

Q: IHDV was tested. Which enrichment ratio did it give?
A: ≤ 0.25

Q: With TYFP as the variant, how does the enrichment ratio read?
A: ≤ 0.25

Q: With QPNT as the variant, how does the enrichment ratio read?
A: ≤ 0.25

Q: QYPR was tested. Which enrichment ratio did it give?
A: ≤ 0.25

Q: CIFD was tested. Which enrichment ratio did it give?
A: ≤ 0.25

Q: With QDHW as the variant, how does the enrichment ratio read?
A: ≤ 0.25

Q: REPD was tested. Which enrichment ratio did it give?
A: ≤ 0.25

Q: For KQLF, which enrichment ratio is on record?
A: ≤ 0.25

Q: How did the enrichment ratio turn out when QIAA was run?
A: ≤ 0.25

Q: How did the enrichment ratio turn out when ILLV was run?
A: ≤ 0.25

Q: For EVGW, which enrichment ratio is on record?
A: ≤ 0.25

Q: IEIW was tested. Which enrichment ratio did it give?
A: ≤ 0.25

Q: How did the enrichment ratio turn out when GITD was run?
A: ≤ 0.25

Q: HWTG was tested. Which enrichment ratio did it give?
A: ≤ 0.25

Q: How did the enrichment ratio turn out when TQMD was run?
A: 63

Q: How did the enrichment ratio turn out when DIAK was run?
A: ≤ 0.25

Q: With MHKQ as the variant, how does the enrichment ratio read?
A: ≤ 0.25

Q: How did the enrichment ratio turn out when SSKN was run?
A: ≤ 0.25

Q: Which enrichment ratio does the source give for SQAR here?
A: ≤ 0.25

Q: With SDRI as the variant, how does the enrichment ratio read?
A: ≤ 0.25

Q: FVSM was tested. Which enrichment ratio did it give?
A: ≤ 0.25
